Laboratory results: US20260216133A1, “AEROSOL COMPRISING 5-METHOXY-N,N-DIMETHYLTRYPTAMINE” (GH Research Ireland Limited, priority 2020, published 2026)

Tested on: patients with treatment-resistant major depressive disorder (TRD)
Assay: Clinical trial, single inhalation of 5-MeO-DMT aerosol
[1] = single dose 12 mg, single inhalation, two patients

Structure (SMILES): COc1ccc2[nH]cc(CCN(C)C)c2c1 [5-MeO-DMT, 5-methoxy-N,N-dimethyltryptamine]
- Montgomery-Asberg Depression Rating Scale (MADRS) score, formal remission (both patients, 2 hours after 12 mg single inhalation): ≤ 10
- depressive symptoms (MADRS) at follow-up (both patients, day 1 and day 7 follow-up visits): effect further deepening
- systemic absorption from aerosol particles (inhalation, evidenced by onset of psychedelic effects): rapidly systemically absorbed
- duration of the psychedelic experience as judged by an external observer (patient 1, 12 mg single inhalation): 16 min
- duration of the psychedelic experience as judged by an external observer (patient 2, 12 mg single inhalation): 40 min
- peak psychedelic experience, 30-item revised Mystical Experience Questionnaire (MEQ30) [1]: both patients achieving a peak psychedelic experience
- tolerability of inhalation procedure [1]: well tolerated with no inhalation-related adverse events, especially no coughing
